About 9,900 (2.8%) of roughly 350,000 compounds were called active. Inconclusive results, whose numbers are uncertain, are shown with a selection of clear calls. Calls follow the shape of the dose curve; as a rule, active = well fitted activation curve with a large enough effect; inconclusive = small, poorly fitted or top-dose-only effect; inactive = no such curve, though single readings can be large or run the other way. Potencies of inconclusive entries are left out as doubtful fits.
Assay: A quantitative high throughput screen for small molecules that induce DNA re-replication in MCF 10a normal breast cells. Also: nearly all actives have a fitted effect of over 50% in size. As to activity, positive = re-replication: % of control where 0% means no effect.
Conditions: MCF 10A DNA re-replication, Hoechst nuclear intensity, 48 h; activity, positive = re-replication: at 46.1 µM (top of the series)
Potency is read from the fitted curve at half-maximal effect; tags tell the direction and shape of the fitted curve.

SMILES | Potency | activity, positive = re-replication
COc1ccc2[nH]cc(CCNC(=O)COc3cc(C)cc4oc(=O)cc(C)c34)c2c1 | inconclusive [activator, full curve, poor fit] | 
COc1cc2c(c(OC)c1OC)-c1c(cc3c(c1OC)OCO3)C1OC2[C@@H](C)[C@H]1C (some centres undefined) | inconclusive [activator, single point] | 
CCCCN1C(=O)N(c2nnc(C(C)(C)C)s2)C(O)C1c1ccc(C)cc1 (centres undefined) | inconclusive [activator, single point] | 
Cc1cc(C)n(-c2nc(NCC(C)O)c3c4c(sc3n2)CCCC4)n1 (centres undefined) |  | inactive: 1.09%
CS(=O)(=O)N1CCc2cc(-c3csc(NC(=O)Cc4ccccc4)n3)ccc21 | inconclusive [activator, full curve, poor fit] | 
CC(C(=O)N1CCc2ccccc21)N1CCN(S(=O)(=O)c2ccc(C(F)(F)F)cc2)CC1 (centres undefined) |  | inactive: -0.0581%
CC1(c2cccc3ccccc23)OC(=O)c2ccccc21 (centres undefined) | inconclusive [activator, single point] | 
Cc1cccc(Cn2nc(C(C)(C)C)cc2C(=O)Nc2ccc(F)cc2)c1 | inconclusive [activator, single point] | 
CCOC(=O)C1NN=C(C(=O)c2ccccc2)C1c1ccccc1 (centres undefined) |  | inactive: 9.8%
Oc1cccnc1CN1CCCCC1 | inconclusive [activator, full curve, poor fit] | 
CCCOC(=O)c1ccc(-c2c(C)noc2-c2ccc(OC)cc2O)o1 | inconclusive [activator, single point] | 
CCN(CC)C(=O)COc1ccc2c3c(c(=O)oc2c1)CCCC3 |  | inactive: 10.4%
COC(=O)N1C(=O)[C@@](c2ccccc2)(C2CCCCC2)N1C(=O)OC | active: 14.6 µM | 
c1ccc(N2CCN(c3nnc(Cc4cccnc4)c4ccccc34)CC2)nc1 | inconclusive [activator, single point] | 
COc1cccc(N2CC(O)=C(c3nc4ccccc4s3)C2=N)c1 | inconclusive [activator, full curve] | 
C=C1SC(Nc2c(C)cc(C)cc2C)=NC12CCCCC2 | inconclusive [activator, partial curve, poor fit] | 
C=CCc1cc(Cl)ccc1OCCCNC(C)CC (centres undefined) | inconclusive [activator, full curve] | 
COc1ccc2nc(-c3ccccc3)nc(SCC(=O)NCC3CCCO3)c2c1 (centres undefined) | inconclusive [activator, partial curve, poor fit] | 
COc1ccccc1N1CCN(C(=O)c2cc3c(=O)n(C)c4ccccc4c3n2C)CC1 |  | inactive: 9.8%

From PubChem BioAssay AID624296 (National Center for Advancing Translational Sciences (NCATS), 2012)
